Structures can show the parent of a compound that is named as a salt. Some of the results follow. Rule as the data show it: active = -2 or less and inactive = the rest. Most values come without repeats; read them as rough.
system: hPSC-derived cortical neurons (WA09); assay: nuclei number (viability) z-score; higher = more surviving cells; conditions: 5 µM; treatment: days 7-14 after plating, readout day 21
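Also: nuclei counted from DAPI counterstain by automated high-content image analysis, four fields per well at ×20 in 384-well plates, with sequential b-score then z-score normalization.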

SMILES | nuclei number (z-score)
CNC(=O)[C@H](Cc1c[nH]c2ccccc12)NC(=O)[C@@H](CC(=O)NO)CC(C)C [Ilomastat (GM6001, Galardin)] | inactive: -1.02
C[C@H]1C[C@H]2[C@@H]3CCC4=CC(=O)C=C[C@]4(C)[C@@]3(F)[C@@H](O)C[C@]2(C)[C@@]1(O)C(=O)CO [Betamethasone] | inactive: 2.51
Oc1ccc(OCc2ccccc2)cc1 [Monobenzone] | inactive: -0.734
CC1=Nc2ccc(Cl)cc2S(=O)(=O)N1 [Diazoxide] | inactive: 1.32
CO[C@@]12[C@H](COC(N)=O)C3=C(C(=O)C(C)=C(N)C3=O)N1C[C@@H]1N[C@@H]12 [Mitomycin C] | active: -5.73
COc1cc(O)c(CC=C(C)C)c(O)c1C(=O)/C=C/c1ccc(O)cc1 [Xanthohumol] | inactive: 1.21
Cc1cc(/N=N/c2ccc(S(=O)(=O)Nc3ccccn3)cc2)c(N)cc1O | inactive: 0.0241
CN(C)CCOc1ccc(/C(=C(/CCCl)c2ccccc2)c2ccccc2)cc1 [Toremifene Citrate] | inactive: -0.936
CC(C)(Cc1ccc2ccccc2c1)NC[C@@H](O)COc1cccc(Cl)c1C#N | inactive: -0.19
O=C(c1cn(Cc2cncn2Cc2ccc(Br)cc2)cc1-c1cccc2ccccc12)N1CCOCC1 | inactive: -1.48
CCN1CCN(C(=O)N[C@@H](C(=O)N[C@@H]2C(=O)N3C(C(=O)O)=C(CSc4nnnn4C)CS[C@H]23)c2ccc(O)cc2)C(=O)C1=O [Cefoperazone] | inactive: -0.383
Cc1ccc(Cl)c(Nc2ccccc2C(=O)O)c1Cl [Meclofenamate Sodium] | inactive: -0.74
O=C(NCCO[N+](=O)[O-])c1cccnc1 [Nicorandil] | inactive: -0.0492
CCCN(CCC)C(=O)C1=Cc2ccc(-c3ccc(C(=O)N4CCCC4)cc3)cc2N=C(N)C1 [Motolimod (VTX-2337)] | inactive: 0.457
CC(C)CC(=O)N[C@H](C(=O)N[C@H](C(=O)N[C@@H](CC(C)C)[C@@H](O)CC(=O)N[C@@H](C)C(=O)N[C@@H](CC(C)C)[C@@H](O)CC(=O)O)C(C)C)C(C)C [Pepstatin A] | inactive: 0.0195
O=c1cc[nH]c(=S)[nH]1 [2-Thiouracil] | inactive: 0.347
C[C@H](O)C(=O)Nc1c(I)c(C(=O)NC(CO)CO)c(I)c(C(=O)NC(CO)CO)c1I [Iopamidol] | inactive: 0.776
COC(=O)N(C)c1c(N)nc(-c2nn(Cc3ccccc3F)c3ncccc23)nc1N [Riociguat (BAY 63-2521)] | inactive: 0.346
Nc1nc(NCCc2ccc(O)cc2)nc2nc(-c3ccco3)nn12 | inactive: 0.217
O=C(/C=C/c1ccc(CN(CCO)CCc2c[nH]c3ccccc23)cc1)NO [LAQ824 (Dacinostat)] | active: -3.72
Cc1nc(-c2cn3c(n2)-c2ccc(-c4cnn(C(C)(C)C(N)=O)c4)cc2OCC3)n(C(C)C)n1 | inactive: -0.295
CC(C)(C)c1ccc(-c2nc3ccccc3[nH]2)cc1 | inactive: -0.0486
COc1ccc(S(=O)(=O)N(C(C)=O)c2ccccc2/C=C/c2cc[n+]([O-])cc2)cc1 | active: -4.74

SMILES | nuclei number (z-score)
Cc1c(F)cc(C(=O)NC2CC2)cc1-c1ccc(C(=O)NCC(C)(C)C)cn1 | inactive: 2.57
O=C(NOC[C@H](O)CO)c1ccc(F)c(F)c1Nc1ccc(I)cc1F | inactive: 0.224
CC(C)c1cc(-c2ccc(F)c3ccccc23)nc(N)n1 | inactive: -0.0215
Cc1cc(C)c(/C=C2\C(=O)Nc3ccccc32)[nH]1 [Semaxanib (SU5416)] | inactive: 1.88
CC[C@H]1OC(=O)[C@H](C)[C@@H](O[C@H]2C[C@@](C)(OC)[C@@H](O)[C@H](C)O2)[C@H](C)[C@@H](O[C@@H]2O[C@H](C)C[C@H](N(C)C)[C@H]2O)[C@](C)(O)C[C@@H](C)[C@@H]2N[C@@H](COCCOC)O[C@H]([C@H]2C)[C@]1(C)O [Dirithromycin] | inactive: 2.45
O=C1CC2(CCCC2)CC(=O)N1CCCCN1CCN(c2ncccn2)CC1 [Buspirone HCl] | inactive: 1.09
Nc1ncnc2c1c(I)cn2[C@@H]1O[C@H](CO)[C@@H](O)[C@H]1O [5-Iodotubercidin] | inactive: -1.78
Nc1ccc2cc3ccc(N)cc3nc2c1 [Proflavine Hemisulfate] | active: -7.4
C[C@H](CCC(=O)O)[C@H]1CC[C@H]2[C@@H]3CC[C@@H]4C[C@H](O)CC[C@]4(C)[C@H]3C[C@H](O)[C@]12C [Deoxycholic acid] | inactive: -0.874
CC(=O)Nc1ncc([N+](=O)[O-])s1 [Nithiamide] | inactive: 0.281
CCCCCCCCCCCCCCCC(=O)O[C@@H]1[C@@H](O)[C@@H](O)[C@@H]([C@H](NC(=O)[C@@H]2C[C@@H](CCC)CN2C)[C@H](C)Cl)O[C@@H]1SC [Clindamycin palmitate HCl] | inactive: 0.313
CNc1cccc(CCOc2ccc3c(c2)CN(CC(F)(F)F)C(=O)[C@H](CC(=O)O)C3)n1 | inactive: 1.6
CO/N=C(\C(=O)N[C@@H]1C(=O)N2C(C(=O)O)=C(COC(N)=O)CS[C@H]12)c1ccco1 [Cefuroxime sodium] | inactive: -0.383
CN1CCN(CCOc2cc(OC3CCOCC3)c3c(Nc4c(Cl)ccc5c4OCO5)ncnc3c2)CC1 [Saracatinib (AZD0530)] | inactive: 0.696
CCOCC(O)COc1ccc(NC(=O)CC[S+](C)C)cc1 (configuration not stated) [Suplatast Tosylate] | inactive: 1.26
O=C(O)c1ccc(CN2CCC(CN[C@@H]3C[C@H]3c3ccccc3)CC2)cc1 | inactive: 0.24
O=C(/C=C\n1cnc(-c2cc(C(F)(F)F)cc(C(F)(F)F)c2)n1)NNc1ccccn1 [Verdinexor (KPT-335)] | active: -5.65
CC1Cc2ccccc2N1NC(=O)c1ccc(Cl)c(S(N)(=O)=O)c1 (configuration not stated) [Indapamide] | inactive: -0.314
CCC(=O)c1c(O)cc(O)cc1O [Flopropione] | inactive: 0.872
C=CC(=O)Nc1ccc2ncnc(Nc3cccc(Br)c3)c2c1 | inactive: -0.546
O=C1C[C@@H](c2ccc(O)cc2)Oc2cc(O)cc(O)c21 [Naringenin] | inactive: 0.00437
CCC(=O)O[C@]1(C(=O)CCl)[C@@H](C)C[C@H]2[C@@H]3CCC4=CC(=O)C=C[C@]4(C)[C@@]3(F)[C@@H](O)C[C@@]21C [Clobetasol propionate] | inactive: 1.17
O=S(=O)(O)c1cc(O)ccc1O [Ethamsylate] | inactive: 0.139

SMILES | nuclei number (z-score)
COc1ccc(F)c(F)c1C(=O)c1cnc(NC2CCN(S(C)(=O)=O)CC2)nc1N | active: -2.45
CCCCC(F)(F)[C@@]1(O)CC[C@H]2[C@@H](CC(=O)[C@@H]2CCCCCCC(=O)O)O1 [Lubiprostone] | inactive: -0.568
CCOC(=O)[C@H](CCc1ccccc1)N[C@H]1CS[C@H](c2cccs2)CN(CC(=O)O)C1=O [Temocapril HCl] | inactive: -0.287
O=C1OCCN1/N=C/c1ccc([N+](=O)[O-])o1 [Furazolidone] | inactive: -0.172
COc1ccc(C2CNC(=O)C2)cc1OC1CCCC1 (configuration not stated) [Rolipram] | inactive: -0.087
O=c1c(O)c(-c2ccc(O)cc2O)oc2cc(O)cc(O)c12 [Morin Hydrate] | inactive: -1.34
OC[C@H]1O[C@@H](Oc2cc(O)cc(/C=C/c3ccc(O)cc3)c2)[C@H](O)[C@@H](O)[C@@H]1O [Polydatin] | inactive: 0.195
CC(=O)Nc1nc(C)c(-c2ccc(Cl)c(S(=O)(=O)NCCO)c2)s1 | inactive: 0.0457
CCn1cc(-c2cccc(C(F)(F)F)c2)c2sc(C(=N)NC3CCS(=O)(=O)CC3)cc2c1=O | inactive: -0.0955
C[C@H]1C[C@@H]2[C@H]([C@@H](O)C[C@@]3(C)[C@H]2CC[C@]3(O)C(=O)CO)[C@@]2(C)C=CC(=O)C=C12 [Methylprednisolone] | inactive: 0.00686
COc1cc([C@@H]2c3cc4c(cc3[C@@H](O[C@@H]3O[C@@H]5CO[C@@H](C)O[C@H]5[C@H](O)[C@H]3O)[C@H]3COC(=O)[C@H]23)OCO4)cc(OC)c1O [Etoposide] | inactive: 0.442
COc1ccccc1OCC(O)CN1CCN(CC(=O)Nc2c(C)cccc2C)CC1 (configuration not stated) [Ranolazine 2HCl] | inactive: 2.91
COc1ccccc1OCC(O)CN1CCN(CC(=O)Nc2c(C)cccc2C)CC1 (configuration not stated) [Ranolazine] | inactive: 0.907
CN(C)C(=S)NN=C(c1ccccn1)c1ccccn1 | active: -6.82
CNS(=O)(=O)C[C@H]1CC[C@H](N(C)c2[nH]cnc3nccc2-3)CC1 [Oclacitinib] | inactive: 1.05
O=C1c2ccc(Nc3ccc(F)cc3F)cc2CCc2ccc(OC[C@H](O)CO)cc21 [Skepinone-L] | inactive: 0.911
CCCNCC(O)COc1ccccc1C(=O)CCc1ccccc1 (configuration not stated) [Propafenone HCl] | inactive: -0.0866
NC(=O)C(c1ccccc1)(c1ccccc1)[C@@H]1CCN(CCc2ccc3c(c2)CCO3)C1 [Darifenacin HBr] | inactive: -0.849
CCn1c(=O)c(-c2cc[nH]n2)cc2c(C)nc(N)nc21 | inactive: 0.15
CN(C)c1nc(N(C)C)nc(N(C)C)n1 [Altretamine] | inactive: 0.12
Nc1nc2n[nH]nc2c(=O)[nH]1 [Azaguanine-8] | inactive: -0.852
